According to PubChem BioAssay AID651687 (Broad Institute, 2012):
Out of some 350,000 compounds screened, about 600 (0.17%) were called active. Inconclusive means that the source gave no clear call. Such entries were picked first, then a sample of the others.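 Rule for the calls: active = every replicate shows inhibition of at least 40%; inconclusive = mean inhibition at least 40% but some replicate below; inactive = the rest.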

Assay: inhibitors of PGC1a acetylation signal, primary screen, cell-based, U2OS, AlphaScreen, inhibitor mode (AID 651687);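 note: 0% = neutral control wells and 100% = positive control wells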
Settings: AlphaScreen anti-acetyl-lysine, at 15.6 µM, hits give high values, with virally co-expressed GCN5 acetyltransferase
In the case of `O=C(C[C@H]1C=C[C@H](NC(=O)c2ccc3c(c2)OCO3)[C@H](CO)O1)NCc1ccc(F)cc1`, the inhibition is reported as inactive: 8.45%. In the case of `Cc1cccc(-c2ccc3[nH]c4c(c3c2)CCN2C[C@@H]([C@H](C)O)[C@@H](N(C)C(=O)NC3CCCCC3)C[C@@H]42)c1`, the inhibition is reported as inconclusive: 40.5%. In the case of `O=C(NCC[C@@H]1CC[C@H](NS(=O)(=O)Cc2ccccc2)[C@H](CO)O1)C1CCC1`, the inhibition is reported as inconclusive: 60.9%. In the case of `CN(C)/C=N/c1nc2nccc(-c3ccccn3)n2n1`, the inhibition is reported as inconclusive: 46.8%. For `O=C(Nc1ccc(F)cc1)N1CC(=O)N2[C@@H](CO)[C@@H](c3ccc(-c4ccccc4)cc3)[C@@H]2C1`, the inhibition was inconclusive: 60.7%. For `C#CC(=O)N(c1ccc(OC)cc1OC)C(C(=O)NC1CCCC1)c1cccs1` (stereo unspecified), the inhibition was active: 94.5%. In the case of `C/C(=N/NC(=O)CNC(=O)c1cccnc1)c1ccc([N+](=O)[O-])cc1`, the inhibition is reported as inconclusive: 42.7%. In the case of `COc1cccc(CNC(=O)CCC2CCCN(Cc3ccc(OC(F)F)cc3)C2)c1` (stereo unspecified), the inhibition is reported as inconclusive: 52.5%. For `O=C1c2ccccc2C(=O)N1CCSc1ccccc1`, the inhibition was inactive: -2.05%. With `O=C(/C=C/c1cccs1)c1ccc(NC(=O)c2cccc(Br)c2)cc1` the inhibition was active: 47.6%. With `O=C(Cc1ccccn1)NCC[C@@H]1CC[C@H](NC(=O)Nc2ccc(C(F)(F)F)cc2)[C@@H](CO)O1` the inhibition was active: 50.3%. For `O=C(N[C@H]1CC[C@@H](CCNC(=O)C2CCOCC2)O[C@@H]1CO)c1ccccn1`, the inhibition was inactive: -0.356%. In the case of `CCN1C[C@@H](C)[C@H](OC)CN(C)C(=O)c2cc(NC(=O)NC(C)C)ccc2OC[C@H]1C`, the inhibition is reported as inactive: 7.07%. In the case of `O=C(O)C1CC=CCC1C(=O)Nc1ccccc1` (stereo unspecified), the inhibition is reported as inactive: -4.32%. With `O=C(C[C@H]1C[C@H]2c3cc(NC(=O)C4CCC4)ccc3O[C@H]2[C@H](CO)O1)NCc1ccc(-c2ccccc2)cc1` the inhibition was active: 63.6%. For `COCCN(C)Cc1nc(C(c2ccccc2)c2ccccc2)no1`, the inhibition was inconclusive: 52.3%. In the case of `O=C(N/N=C/c1ccc(OC2CSC2)cc1)c1ccc(CN2CCOCC2)cc1`, the inhibition is reported as inconclusive: 42%. In the case of `O=C(Cc1cccc(NC(=O)C2CCCN(C(=O)c3ccccc3)C2)c1)Nc1cccc(C(=O)N2CCOCC2)c1` (stereo unspecified), the inhibition is reported as inconclusive: 40.5%. In the case of `Cc1cc2nc(C(C)(C)C)cc(N)n2n1`, the inhibition is reported as inactive: -4.66%. In the case of `CCC(=O)N1CCC2(CC1)CN(Cc1cccc(F)c1)[C@@H](CO)c1c2c2ccc(OC)cc2n1C`, the inhibition is reported as inactive: -8.81%. For `COc1ccc(NC(=O)N[C@H]2CC[C@@H](CCn3cc(-c4ccccc4F)nn3)O[C@H]2CO)cc1`, the inhibition was inconclusive: 50.4%. For `Cc1c(NC(=O)COC(=O)c2ccccc2O)c(=O)n(-c2ccccc2)n1C`, the inhibition was inconclusive: 56.8%. For `CO[C@H]1CN(C)C(=O)c2cc(NC(=O)Nc3ccc(Cl)cc3)ccc2OC[C@H](C)NC[C@@H]1C`, the inhibition was inconclusive: 42.7%. In the case of `CN1CCN(C2=C(Cl)C(=O)N(CCc3ccccc3)C2=O)CC1`, the inhibition is reported as inconclusive: 47.2%. For `O=C(NCCc1c[nH]c2ccccc12)c1ccccc1`, the inhibition was inactive: -8.79%. In the case of `CCOC(=O)C1(Cc2cccc(F)c2)CCN(Cc2ccc(COC)o2)CC1`, the inhibition is reported as inconclusive: 44.7%. In the case of `CCn1c(=O)c2c(cnn2C)c2ccccc21`, the inhibition is reported as inconclusive: 30.1%. With `C[C@@H]1CN([C@H](C)CO)C(=O)CCCn2cc(nn2)CO[C@@H]1CN(C)C(=O)Nc1cccc2ccccc12` the inhibition was inconclusive: 50.5%. In the case of `O=C(NCC[C@@H]1CC[C@H](NS(=O)(=O)c2ccccc2)[C@@H](CO)O1)c1ccccc1F`, the inhibition is reported as inconclusive: 52.5%. With `OCC1(Cc2ccc(F)cc2F)CCCN(Cc2ccc(Cl)cc2)C1` (stereo unspecified) the inhibition was inconclusive: 46.1%. In the case of `O=C(Cn1ncc(Cl)c(Cl)c1=O)c1ccc(Cl)cc1`, the inhibition is reported as active: 85.3%. With `COc1ccc2c3c(n(C)c2c1)[C@H](CO)N(Cc1ccccn1)CC31CN(Cc2ccccn2)C1` the inhibition was inactive: 7.86%. With `CC(C)c1ccc(NC(=O)c2ccc3c(c2)CCN3S(C)(=O)=O)cc1` the inhibition was active: 81.9%. For `CCOC(=O)C1=C(CNCc2ccc(C)cc2)NC(=O)NC1c1cc(C)ccc1C` (stereo unspecified), the inhibition was inconclusive: 50.1%. With `O=C(Oc1ccc[nH]c1=O)c1cc([N+](=O)[O-])cc([N+](=O)[O-])c1` the inhibition was active: 53.2%. In the case of `CN1c2ccc(C3=CCCCC3)cc2[C@@H]2[C@@H](CCN2C(=O)Nc2ccc(F)cc2)[C@@H]1CO`, the inhibition is reported as inactive: -11.2%. For `CC(c1ccccc1)N1CCN(C(=O)CCl)CC1` (stereo unspecified), the inhibition was inconclusive: 47.8%. With `O=C(C[C@H]1CC[C@@H]2[C@H](COC[C@H](O)CN2Cc2cccc(Cl)c2)O1)NCC1CCCCC1` the inhibition was inactive: -5.8%. In the case of `N#Cc1ccsc1NC(=O)CSc1nnc(NC2CC2)s1`, the inhibition is reported as inconclusive: 41.4%. For `C[C@H](CO)N1C[C@H](C)[C@H](CN(C)C(=O)NC2CCCCC2)Oc2cc(C#Cc3ccc(F)cc3)ccc2S1(=O)=O`, the inhibition was inconclusive: 55%. In the case of `C[C@H](CO)N1C[C@H](C)[C@H](CN(C)S(=O)(=O)c2ccc(Cl)cc2)Oc2ccc(NC(=O)C3CCCCC3)cc2CC1=O`, the inhibition is reported as inactive: 1.08%. With `Cc1ccccc1Cn1cnc2c(nnn2Cc2ccc(F)cc2)c1=O` the inhibition was inconclusive: 48%. In the case of `Cc1cc(C)n(-c2nc(O)cc(=O)[nH]2)n1`, the inhibition is reported as inconclusive: 36.3%. With `O=C(/C=C/c1ccccc1)CC(O)(c1ccccc1)C(F)(F)C(F)F` (stereo unspecified) the inhibition was inconclusive: 42.5%. With `O=C(CNc1ccc(F)cc1Cl)Nc1cccc(S(=O)(=O)N2CCCCC2)c1` the inhibition was inactive: 4.61%. With `CO[C@H]1CN(C)C(=O)c2ccc(NC(=O)C3CCOCC3)cc2OC[C@@H](C)N(C)C[C@@H]1C` the inhibition was inconclusive: 52.8%. In the case of `COC(=O)Nc1ccc(Oc2ccccc2)cc1`, the inhibition is reported as inconclusive: 46.3%. In the case of `CN(C)CC(O)c1ccc(C=Cc2ccc(Cl)cc2)cc1` (stereo unspecified), the inhibition is reported as active: 50.6%. With `CCOc1ccc(S(=O)(=O)N(C)C)cc1-c1nc2c(C(C)(C)C)nn(C)c2c(=O)[nH]1` the inhibition was inconclusive: 47.9%. For `COc1ccccc1-n1c(C)cc(SC)c(C(C)=O)c1=S`, the inhibition was inactive: 0.037%. In the case of `O=[N+]([O-])c1ccc(Oc2ccc(F)cc2)c2ccncc12`, the inhibition is reported as inconclusive: 42.9%.
